{"source": "the supplement of paper PMC11417369", "note": "The other results are listed elsewhere or left out.", "data": [{"test_system": "PF3D7_0420300 AP2 domain 1 (GST-tagged)", "experiment": "gcPBM binding intensity (ln(normalized median fluorescence intensity)); higher = stronger DNA binding", "method_in_brief": "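Each value is the highest Masliner-normalised natural-log median intensity across replicate spots of either orientation of a probe. The probes were primer-extended double-stranded 36-bp intergenic genomic sequences on an Agilent 4 × 180k array, alongside negative controls, exposed for 1 h to GST-tagged P. falciparum DNA-binding domains expressed in E. coli. Bound protein was picked up with Alexa488 anti-GST antibody and scanned at 488 nm.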", "values": [{"sequence": "TTATATTATGTTCAATCAAAAATTATTTTTAAAAAA [XGTACX_negctrl_site595]", "gcPBM binding intensity (ln)": 8.66}, {"sequence": "AAAAAAAAAAAAAACACACACATATAAATATAAATA [CACACA_site6972]", "gcPBM binding intensity (ln)": 9.74}, {"sequence": "ATTATTTGAAACTATTGTACATTTAAAAACATTTTT [XGTACX_site4896]", "gcPBM binding intensity (ln)": 9}, {"sequence": "TGGAACCTTTAAAATACACACCCAAATCCTTTGAAA [CACACA_site7671]", "gcPBM binding intensity (ln)": 9.36}, {"sequence": "ATTGGACTATAAATAGGTACACATATATATATATAT [XGTACX_site7562]", "gcPBM binding intensity (ln)": 9.59}, {"sequence": "TAAATACTTGTATATAGTACAAGTTGTTTTTTTTAA [XGTACX_site5643]", "gcPBM binding intensity (ln)": 8.84}, {"sequence": "CATATATATTTTATTTGTACGTATAAAAAAACAAAA [XGTACX_site4253]", "gcPBM binding intensity (ln)": 9.09}, {"sequence": "ATATGAAAAAGAACTTGTACTAAAGTGGCATATTAT [XGTACX_site8520]", "gcPBM binding intensity (ln)": 9.51}, {"sequence": "TATTTATTGTGACACTTATATTATTTTATGATTAAA [CACACA_negctrl_site525]", "gcPBM binding intensity (ln)": 9.12}, {"sequence": "TATAAAATGATGATATGTACTTATGTAGTTTTTTTA [XGTACX_site8711]", "gcPBM binding intensity (ln)": 9.07}, {"sequence": "TTTTCATTTGTGACAGTGCAAAATGTTATATTAAAA [GTGCAC_site9647]", "gcPBM binding intensity (ln)": 8.93}, {"sequence": "AATATATGGTTTCATGATATTAAATTCAAAATAATG [CACACA_negctrl_site318]", "gcPBM binding intensity (ln)": 9.01}, {"sequence": "AATAATACATCCTTAGTGCAGAAATAAAAATTAAGC [GTGCAC_site9955]", "gcPBM binding intensity (ln)": 9.5}, {"sequence": "TGTATACATTCTGAATGTACGGAACACCTCATAACT [XGTACX_site7240]", "gcPBM binding intensity (ln)": 9.25}, {"sequence": "TTTGTAATAAATAAGAGTACAAGTATGGTTCCACTA [XGTACX_site2579]", "gcPBM binding intensity (ln)": 9.19}, {"sequence": "AAAATCTAGGTATTTATACACACTAAAATAATATAC [CACACA_site623]", "gcPBM binding intensity (ln)": 9.47}, {"sequence": "CAAATACAGAAACACACACACATATACATATATATA [CACACA_site3498]", "gcPBM binding intensity (ln)": 9.97}, {"sequence": "TATATATATATATGGGGTACAAATGGTCAGTATTAT [XGTACX_site1223]", "gcPBM binding intensity (ln)": 9.43}, {"sequence": "AATATGTAATAGTGTACACATATATCTGTATTTATG [CACACA_site4252]", "gcPBM binding intensity (ln)": 9.36}, {"sequence": "ATTACACATATAGTAGTGCAATAACTCCAAAAAAAA", "gcPBM binding intensity (ln)": 9.2}, {"sequence": "TTTAAATATAATTGGAGTACTTATAATATATATATA [XGTACX_site7247]", "gcPBM binding intensity (ln)": 8.9}, {"sequence": "ATGTTATTAAAAAAGGGTACACATCTTTTATGTTAA [XGTACX_site812]", "gcPBM binding intensity (ln)": 9.14}, {"sequence": "GAAAATATAAAAAAAAGTACATTTTCTCTAAATATA [XGTACX_site2441]", "gcPBM binding intensity (ln)": 8.89}, {"sequence": "AAAAAGGGTATTATTACACACACGTAAATATTAAGA [CACACA_site4233]", "gcPBM binding intensity (ln)": 9.7}, {"sequence": "AAAAAAAAATTATATACACACATATAAATATATATA [CACACA_site1197]", "gcPBM binding intensity (ln)": 9.46}, {"sequence": "CTATATAATATGAGCACACATAAGATTTGGTGTTAT [CACACA_site744]", "gcPBM binding intensity (ln)": 9.32}, {"sequence": "TATATATATTATATATGTACATATATTTTTTTTTTT [XGTACX_site127]", "gcPBM binding intensity (ln)": 9.2}, {"sequence": "ATTTATATTACAAAAAGTACACACATAAATAAATAC [XGTACX_site1827]", "gcPBM binding intensity (ln)": 9.77}, {"sequence": "TATTAATCATATAAATGTACGTATATATATTTTTCT [XGTACX_site1421]", "gcPBM binding intensity (ln)": 9.24}, {"sequence": "ATATATATATATATAACACACGTGTATATATATGTA [CACACA_site3644]", "gcPBM binding intensity (ln)": 9.28}, {"sequence": "CAATCATAGAAAAACAGTACGTGTAGCAAACATCCT [XGTACX_site4889]", "gcPBM binding intensity (ln)": 9.59}, {"sequence": "TATAATATATTATAACGTACAAATATATATATAAAA [XGTACX_site6581]", "gcPBM binding intensity (ln)": 9.31}, {"sequence": "AAAAAAAAAAAATATATATATATATATATATATATA [CACACA_negctrl_site1606]", "gcPBM binding intensity (ln)": 9.3}, {"sequence": "AAAAAGAATAAATAAATAAATAAATATATATATATA [GTGCAC_negctrl_site584]", "gcPBM binding intensity (ln)": 9.04}, {"sequence": "TTTATTACTATGTAAACACACATGCAATATATGTTA [CACACA_site1114]", "gcPBM binding intensity (ln)": 9.25}, {"sequence": "AAAAAGAAAAAAAAATGTACATAAAGTCTAATGATA [XGTACX_site4781]", "gcPBM binding intensity (ln)": 9.37}, {"sequence": "ATATTATATAAATACACACACACATGCATGCACATA [CACACA_site4236]", "gcPBM binding intensity (ln)": 10.1}, {"sequence": "CCTATTTATTTATACACACACATATATAAATAAATA [CACACA_site7417]", "gcPBM binding intensity (ln)": 9.68}, {"sequence": "AAAACAAATAAGTAAACACACATATAAAATCTATAT [CACACA_site7262]", "gcPBM binding intensity (ln)": 9.71}, {"sequence": "TTATGTAAATGCTTATGTACTTATTACAATATTTTT [XGTACX_site4057]", "gcPBM binding intensity (ln)": 9.34}, {"sequence": "TAAGAATTGAAAAAATGTACACAATATAAAATTGAA [XGTACX_site698]", "gcPBM binding intensity (ln)": 9.14}, {"sequence": "TGAATAAAGATATATACACACATATAGGTATATATC [CACACA_site6870]", "gcPBM binding intensity (ln)": 9.51}, {"sequence": "AAAAAAAAAAGACACACACACACAAATACATACACA [CACACA_site6472]", "gcPBM binding intensity (ln)": 10.1}, {"sequence": "ATCTAAATAAAGTTAACACACACATAATATATATAT [CACACA_site8055]", "gcPBM binding intensity (ln)": 9.81}, {"sequence": "TGCTTATATTTTTATACACACAAGATACTTTTTGTT [CACACA_site1535]", "gcPBM binding intensity (ln)": 9.59}, {"sequence": "TTTTTTTCTTTTGGGAGTACCAACATTTTCACATAT [XGTACX_site1371]", "gcPBM binding intensity (ln)": 9.37}, {"sequence": "CTATGCCCCATATAAACACACAAATAAAAAGAATAT [CACACA_site2681]", "gcPBM binding intensity (ln)": 9.54}, {"sequence": "TATATGTTTGAATATACACACAACATATTTATATAT [CACACA_site7832]", "gcPBM binding intensity (ln)": 9.45}, {"sequence": "AAAAAAAAAAAATATGTACACACATATATAATACAT [CACACA_site8473]", "gcPBM binding intensity (ln)": 9.59}, {"sequence": "TTTTTTGTTAAAAGAGTGCAAATTTTTAAAGATTTG [GTGCAC_site9502]", "gcPBM binding intensity (ln)": 8.75}, {"sequence": "AAAAAAAAAAAAAAATACAAGCACATTTATATAAGC [GTGCAC_negctrl_site695]", "gcPBM binding intensity (ln)": 9.46}, {"sequence": "AGTAATATAATATAAGCACACGTGTATTTATTTAGG [CACACA_site7921]", "gcPBM binding intensity (ln)": 9.47}, {"sequence": "TATATATCAATATTTACACACATGCGCCCACATAAA [CACACA_site7185]", "gcPBM binding intensity (ln)": 9.66}, {"sequence": "AAATACATTAAAATGACATGCAGATATATATCAAAA [TGCATGCA_site477]", "gcPBM binding intensity (ln)": 9.45}, {"sequence": "TTAAAAAAATATAGAGCATGCTAAAAATAAAAAAAT [TGCATGCA_site794]", "gcPBM binding intensity (ln)": 9.33}, {"sequence": "AATAAAAATAATATAGTGCATAATATAAGGAAAAAA", "gcPBM binding intensity (ln)": 9.6}, {"sequence": "CAACACTTAGATTTTAAGTTCACTGGTTAATATATA [CACACA_negctrl_site707]", "gcPBM binding intensity (ln)": 9.13}]}]}
